Test results as given in the supplement of paper PMC11417369.
± gives the standard deviation of the averaged measurements. Some of the results follow.

These sequences were tested on PfAP2-G AP2 domain (GST-tagged) (assay: gcPBM binding intensity (ln(normalized median fluorescence intensity)); higher = stronger DNA binding).
Method in brief: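 Using an Agilent 4 × 180k array, primer-extended double-stranded 36-bp intergenic genomic probes and negative controls were exposed for 1 h to GST-fused P. falciparum DNA-binding domains expressed in E. coli. Binding was carried out in 1× PBS with 1% milk, 0.2 mg/ml BSA, 0.5% salmon testes DNA and 0.03% Triton X-100, and protein was detected with Alexa488 anti-GST antibody and a 488 nm scan. Binding intensity is the highest Masliner-normalised natural-log median intensity across replicate spots of either probe orientation.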

Sequence	gcPBM binding intensity (ln)
AGAAGAAATATGTAAAAAATTTTATATTCACACACA [GTGCAC_negctrl_site441]	10.03 ± 0.099
AAAAAAAAAAAAAAAAAAAAAAAAAAAAAATATATA [GTGCAC_negctrl_site6]	11.1 ± 0.62
TTAGGGATGCTGAAATGTACACATTTAAATTATATA [XGTACX_site3000]	11.2 ± 0.86
AACTCATCTTATAATTGTACATATTTATAAAAAGTA [XGTACX_site6522]	11.2 ± 0.79
TGTAGAAATGGGTGCACACACATATATAATATATAT [CACACA_site2507]	10.7 ± 0.61
CGTACTAACATAAAGACACACACCACATATAATAAA [CACACA_site3603]	10.3 ± 0.23
ATTGTCTTCCTTCTGGTGCGATGTATAGGTAAAGAT	10.2 ± 0.21
AATGTAAAACTAATATGTACATATCTCTAAAGAAAT [XGTACX_site8429]	11 ± 0.57
TAAAAGTGATATGTTCGTACGTATTTATATGTAATA [XGTACX_site211]	11.1 ± 0.57
TGTGTATACTTGTGTATACCAAATTAAAGACGCTTT [CACACA_negctrl_site1359]	10.2 ± 0.18
AAAAAATAAAAAAGGTGGTCATGTCACAAATACTTT [XGTACX_site7454]	11.4 ± 0.93
GTATATATATATATATATATATATATATATATATAT [CACACA_negctrl_site609]	9.84 ± 0.53
TCTCCATCTTATGAGACATGCACTTTTTATTTAATA [TGCATGCA_site121]	10.2 ± 0.23
TTGTGTAAATGTTAAGTGCATTTGGTAAAATATAAA [GTGCAC_site9699]	10.1 ± 0.17
AAAAAAAAAAAAAAAACACACATACCCATATATTTT [CACACA_site6013]	10.29 ± 0.092
ATGATATGCAATTTAGTGCATAACAAAATTGGTATA	9.895 ± 0.035
TCTTAATTTTTGAAGGTACACACTAATATATTAAAT [CACACA_site1191]	11.2 ± 0.75
TATAAATGTATACAAGTGCATATTATTCACACATAA	10.07 ± 0.085
ATAATCCTTAAACACACACACACACTAATAAATAAA [CACACA_site8052]	10.2 ± 0.4
ATAAAAATTAAAGAATGTACACATATAATATATGTA [XGTACX_site8735]	11.3 ± 0.83
AAAAGTTATAGACACACACACATATAAATATAGATT [CACACA_site6617]	10.1 ± 0.16
TTGTTTCCTTAATATTCACACACATATATATAATAT [CACACA_site8553]	10.2 ± 0.26
TATTATGACTTAAGTTGTACTGTTGAAAGAAGAAAA [XGTACX_site2985]	10.9 ± 0.49

Sequence	gcPBM binding intensity (ln)
TTTTAAAAAAATAAATAAATAGAAAAAAAAAATAAA [TGCATGCA_negctrl_site579]	9.6 ± 0.071
GGATATATTTTATGTACACACATATATAACGGATAT [CACACA_site4847]	11.5 ± 1
TATCAATGGAAAATATATATTTGTATATATGTAATA [XGTACX_negctrl_site257]	9.69 ± 0.071
CGTATAAATAAATACACACACATATAAATATGTAAA [CACACA_site6236]	9.97 ± 0.17
TAATATATTGTAGATGCATGCATTAACTATTACAAA [TGCATGCA_site190]	9.72 ± 0.085
GAAATTATTATATAAACACACATTTATTTTATTTTA [CACACA_site1957]	9.63 ± 0.17
GTATTATACCATAATGCATGTTAACTTCAAAAGAAA [TGCATGCA_site839]	10.07 ± 0.099
ACAAGCTTTCATAAGGTGCAATGATTTAACAAAAAA [GTGCAC_site9726]	10.1 ± 0.24
AATTATTAGCGTGGTGTGCACAAAATTATGGACACA	11.2 ± 0.67
TACGTGAAATTATATACACACATAAATATGTCTGTA [CACACA_site3122]	9.77 ± 0.042
TATAAAAATAATATTACACACATGTAAAATGTCGGT [CACACA_site3264]	9.965 ± 0.035
ACACATGACATCCGTTGTACAATCATCATAAAAATG [XGTACX_site5397]	11.3 ± 0.76
AGCATTTATGAAAAATGTACACACATCAAATGCTTA [XGTACX_site8749]	11.3 ± 0.88
AGCAACCCCCTAGCTACACACATATAGATATATATA [CACACA_site951]	10.7 ± 0.4
AAAAAAATAAATAAATACATACATATATATATGTAT [GTGCAC_negctrl_site510]	9.65 ± 0.22
AAAAAAAAAAAACACACACACAAAAAAAAATATATA [CACACA_site1105]	9.75 ± 0.042
TTGCCCCAGGAGTTCACACACATAATAGATTGTCAC [CACACA_site726]	10.3 ± 0.19
TATATATTATACACGTGTACACATTATAACAATATA [XGTACX_site7799]	11.7 ± 0.77
TTTCCCTTAAATTAATGTACATAAATTGAAAATACC [XGTACX_site1602]	11.3 ± 0.77
TAAAATTTTTTTGTTTGTACATATATATATATAATA [XGTACX_site5609]	11 ± 0.52
TATTCTATAAATATATTTTTTTAATTTTTTATTTTA [CACACA_negctrl_site307]	9.54 ± 0.099
ATATAAGAATTTAAGAGTACATTCACTTCAAATTTA [XGTACX_site2115]	11.1 ± 0.88
TATGTAAAAAGAGAAAAAAAAAAGAACGATAATTTC [CACACA_negctrl_site946]	9.71 ± 0.28

Sequence	gcPBM binding intensity (ln)
TTGTAATTCATTCAAATATAAAATAAATAAATATGA [CACACA_negctrl_site349]	9.67 ± 0.11
AAAATGTGCTTTTCAGTGCAATTTTTTTTGTAATAA [GTGCAC_site9566]	9.955 ± 0.021
TATTATTATTTTTTATGTACTAACGACAAAAATATT [XGTACX_site252]	11.2 ± 0.86
AGGTGTATCATAAAATGTACATACATACATACATAA [XGTACX_site4479]	11.3 ± 0.37
ATAACATAACATAATACACACATATAAAAAAGAAAT [CACACA_site3028]	10.1 ± 0.18
ATATAATATATTTTCACACATATTTTATGATGATAA [CACACA_site5614]	9.755 ± 0.007
AAAAAAAAAAAAAAAGGTACAGTAAAAAATTCCTCT [XGTACX_site5947]	11.7 ± 0.98
AAATTTAATTTTATATCACACATTAAATTTTAATGG [CACACA_site4251]	9.81 ± 0.12
AAATATAATAATATATGTACATATATATATATATAT [XGTACX_site6980]	11.2 ± 0.72
AAAAAAATATATATATATATATATATATATATATAT [TGCATGCA_negctrl_site7]	9.82 ± 0.79
CGTGGGAGCGGACACACACACACACCCATATATATA [CACACA_site4340]	11.2 ± 0.85
ATACAAAAAAGAAGGACACACAGAAGTAACATGTTA [CACACA_site3074]	11.4 ± 1
TAACATGATATATAATGTACATATAAGATATTTATA [XGTACX_site4383]	10.9 ± 0.51
ATGAATTATATATTATGTACATATAATTAAAATATA [XGTACX_site7140]	11.2 ± 0.8
TTTAAAAAAAAAAAAAAAAATTAAATGAATTATTAA [CACACA_negctrl_site1121]	9.085 ± 0.007
TATGTATTAAATTTTACACACATGATTCTCTATATG [CACACA_site8720]	9.98 ± 0.014
TATACATATTATATATGTACACATATTATATGTATA [XGTACX_site5851]	11.3 ± 0.91
AATTTAAAAGCTTGTGGTACTTTTGCTCTTCCTTTG [XGTACX_site3148]	11 ± 0.54
TCAACAAATAAACTTTGTACATATATACAAAATATA [XGTACX_site4447]	10.8 ± 0.43
AAAATAATTAAAAAAAGTACTCGTAATATAAATATA [XGTACX_site4967]	11.4 ± 0.98
TACATCGGTATATAAACACACAACAAAAATGCTTAC [CACACA_site5983]	9.895 ± 0.007
TTTTTTTAAAAAAACAAAAAAAAAAAAAATATAAAA [TGCATGCA_negctrl_site511]	9.82 ± 0.28
TTAAAAGATATTACATGTACATATTCAATATATGTA [XGTACX_site5895]	11.1 ± 0.69

Sequence	gcPBM binding intensity (ln)
ACAAATAAATAAAAATGTACAAATGAATACATCTTA [XGTACX_site3780]	10.7 ± 0.37
ATATAAAGAAATTAATTTTTCAACAATAAAAATATA [CACACA_negctrl_site1262]	9.645 ± 0.092
TACATTTATAATAATACACACATAAATTTACATTTT [CACACA_site3463]	10.1 ± 0.16
TATGAAAATTAAGTTTGTACACAAGTGGAAAAAAAA [XGTACX_site6129]	11.2 ± 0.69
AAAAAAAAAAAAAAAAAAAAAAAAAAAAAAAAAAAT [CACACA_negctrl_site882]	11.3 ± 0.62
AAATTAAATAAATTTACACACTAAAAGTTACCTATA [CACACA_site6623]	9.82 ± 0.085
TTTGTTATTTATTAGTGTACAAAAAAGCATTTCAAA [XGTACX_site8729]	11.1 ± 0.71
TTTTTTTTGCGTACAGTGCAAATTTATTTACTATTC	11.7 ± 1.1
AATAATGTATAATGATGTACAAAAAAGGAAGACATA [XGTACX_site2474]	11 ± 0.51
ATATTTTGTAATATTTGTACATATATTATACATATA [XGTACX_site963]	10.9 ± 0.54
CAAAACATTTTATCTACACACATATATAAATAAATA [CACACA_site3220]	9.885 ± 0.035
AATAAAACATAATAATGTACTCAAAGGTTTAACTTG [XGTACX_site4711]	11.2 ± 0.72
ATTAAATAAAAAAACACACACATATATACCTATATA [CACACA_site5837]	9.96 ± 0.13
GGGGGGAGGGTGAATACACACGTAATAATCATAAAC [CACACA_site8502]	11.6 ± 0.79
AAAATAAAAGAATAAAAATATGAAACTTTTTTAAAA [GTGCAC_negctrl_site348]	9.58 ± 0.17
AACGTGTGGAGAATTATAAATGAGTAAAAAATATAT [XGTACX_negctrl_site562]	9.96 ± 0.23
GCAAATCAATTTTTTTTTAAAACTCATTTTTTCGTT [CACACA_negctrl_site1136]	9.87 ± 0.23
TCCGTTATATATGTGTGTACATATAATATATCCTCA [XGTACX_site2588]	11.5 ± 0.98
ATATATGTGTATGTATGTACTTATATTTTTTTTTAT [XGTACX_site1733]	11.2 ± 0.78
TTTTTTTTTTATGAAAGTACATATGAAAAATACGAA [XGTACX_site3451]	11 ± 0.8
